Source: the supplement of paper PMC4604168 (melanoma cell lines)
The list shows a part of the results. Most values come without repeats; read them as rough.

Tests used:
Assay in all cases: cell count relative to DMSO control; melanoma cells; higher = more viable cells
Conditions in all cases: library dose: low library concentration; 72 h
[1] = test system: WM115
[2] = test system: WM1716
[3] = test system: WM1745
[4] = test system: WM3526
[5] = test system: WM3619
[6] = test system: WM451Lu
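Also: cell number obtained by counting DAPI-stained nuclei in high-throughput microscope images with image analysis software, screen run in 1,536-well plates.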

| SMILES | cell count [1] [%] | cell count [2] [%] | cell count [3] [%] | cell count [4] [%] | cell count [5] [%] | cell count [6] [%] |
| --- | --- | --- | --- | --- | --- | --- |
| Cn1c(Nc2ccc(C(F)(F)F)cc2)nc2cc(Oc3ccnc(-c4ncc(C(F)(F)F)[nH]4)c3)ccc21 + O=C(Nc1cccc(Cl)c1)Nc1ncc(CCNc2ncnc3ccsc23)s1 [SNS314] (first compound 0.08 µM, partner dose 0.0008 µM) | 40.8 | 77.9 | 69.3 | 43.8 | 76.5 | 77.6 |
| Clc1ccc(Nc2nnc(Cc3ccncc3)c3ccccc23)cc1 [vatalanib] + CO[C@@H]1[C@H](N(C)C(=O)c2ccccc2)C[C@H]2O[C@]1(C)n1c3ccccc3c3c4c(c5c6ccccc6n2c5c31)C(=O)NC4 [Midostaurin] (first compound 2 µM, partner dose 0.08 µM) | 83 | 70.3 | 81 | 88.6 | 63.3 | 99.1 |
| C#Cc1cccc(Nc2ncnc3cc(OCCOC)c(OCCOC)cc23)c1 [erlotinib] + O=C(CCCCCCC(=O)Nc1ccccc1)NO [vorinostat] (first compound 0.8 µM, partner dose 0.08 µM) | 89.3 | 100 | 79.6 | 71.8 | 79.3 | 97.4 |
| Cn1c(Nc2ccc(C(F)(F)F)cc2)nc2cc(Oc3ccnc(-c4ncc(C(F)(F)F)[nH]4)c3)ccc21 + c1cc(-c2cnn3cc(-c4ccc(OCCN5CCCCC5)cc4)cnc23)ccn1 [Dorsomorphin] (first compound 0.08 µM, partner dose 0.4 µM) | 65.9 | 79.6 | 47 | 65.3 | 76.2 | 68.6 |
| Cn1c(Nc2ccc(C(F)(F)F)cc2)nc2cc(Oc3ccnc(-c4ncc(C(F)(F)F)[nH]4)c3)ccc21 + CCCCCCCCCCCC1=C(O)C(=O)C=C(O)C1=O [Embelin] (first compound 0.08 µM, partner dose 1.2 µM) | 56.5 | 91.9 | 73.1 | 53.3 | 63.5 | 94.9 |
| Nc1cccc2c1CN(C1CCC(=O)NC1=O)C2=O (configuration not stated) [lenalidomide] + c1cc(-c2cnn3cc(-c4ccc(OCCN5CCCCC5)cc4)cnc23)ccn1 [Dorsomorphin] (first compound 1 µM, partner dose 0.4 µM) | 107 | 98.7 | 93.3 | 113 | 122 | 111 |
| COCC[n+]1c2c(n(Cc3cnccn3)c1C)C(=O)c1ccccc1C2=O + Oc1nc(-c2ccc(C(F)(F)F)cc2)nc2c1CSCC2 [XAV939] (first compound 0.0004 µM, partner dose 2 µM) | 78.8 | 71.3 | 85 | 102 | 90.7 | 85.4 |
| Clc1ccc(Nc2nnc(Cc3ccncc3)c3ccccc23)cc1 [vatalanib] + O=C(O)c1ccc(-c2c[nH]c3ncc(-c4ccccc4)cc23)cc1C1CCCC1 [GSK650394] (first compound 2 µM, partner dose 0.16 µM) | 91.9 | 94.7 | 83.7 | 97.1 | 117 | 109 |
| Cn1c(Nc2ccc(C(F)(F)F)cc2)nc2cc(Oc3ccnc(-c4ncc(C(F)(F)F)[nH]4)c3)ccc21 + Cn1nnc2c(C(N)=O)ncn2c1=O [temozolomide] (first compound 0.08 µM, partner dose 2 µM) | 45.5 | 70.5 | 70.2 | 44.5 | 59.8 | 72.9 |
| Cn1c(Nc2ccc(C(F)(F)F)cc2)nc2cc(Oc3ccnc(-c4ncc(C(F)(F)F)[nH]4)c3)ccc21 + CN(NC(=O)CC(=O)NN(C)C(=S)c1ccccc1)C(=S)c1ccccc1 [STA4783] (first compound 0.08 µM, partner dose 0.006 µM) | 50.4 | 56.1 | 64.4 | 53.3 | 73.3 | 86.2 |
| Nc1cccc2c1CN(C1CCC(=O)NC1=O)C2=O (configuration not stated) [lenalidomide] + O=C(O)C(=O)Nc1sc2c(c1C(=O)O)CCNC2 [TCS401] (first compound 1 µM, partner dose 1.66667 µM) | 97.7 | 99.8 | 93 | 106 | 99.6 | 110 |
| Clc1ccc(Nc2nnc(Cc3ccncc3)c3ccccc23)cc1 [vatalanib] + Oc1nc(-c2ccc(C(F)(F)F)cc2)nc2c1CSCC2 [XAV939] (first compound 2 µM, partner dose 2 µM) | 80.7 | 61.4 | 76.9 | 116 | 111 | 103 |
| OCc1c[nH]c2ccccc12 [Indole-3-carbinol] + COc1ccc(-c2ccc3c(N4CCOCC4)nc(N4C[C@@H](C)O[C@@H](C)C4)nc3n2)cc1CO [KU0063794] (first compound 0.8 µM, partner dose 0.02 µM) | 92 | 97.3 | 96 | 111 | 132 | 112 |
| O=C(CCCCCCC(=O)Nc1ccccc1)NO [vorinostat] + O=c1cc(-c2cccc3c2Sc2ccccc2S3)oc(N2CCOCC2)c1 [KU55933] (first compound 0.08 µM, partner dose 1 µM) | 106 | 125 | 112 | 85.8 | 104 | 85.4 |
| COCC[n+]1c2c(n(Cc3cnccn3)c1C)C(=O)c1ccccc1C2=O + Cn1nnc2c(C(N)=O)ncn2c1=O [temozolomide] (first compound 0.0004 µM, partner dose 2 µM) | 98 | 82.6 | 124 | 80 | 105 | 59.7 |
| COCC[n+]1c2c(n(Cc3cnccn3)c1C)C(=O)c1ccccc1C2=O + Cc1cc(N2CCOCC2)cc2[nH]c(-c3c(NC[C@@H](O)c4cccc(Cl)c4)cc[nH]c3=O)nc12 [BMS536924] (first compound 0.0004 µM, partner dose 0.2 µM) | 97.7 | 88.3 | 75.4 | 79.6 | 98 | 58.7 |
| C#Cc1cccc(Nc2ncnc3cc(OCCOC)c(OCCOC)cc23)c1 [erlotinib] + O=C(Nc1ccccc1)c1cc([N+](=O)[O-])ccc1Cl [GW9662] (first compound 0.8 µM, partner dose 2 µM) | 99.4 | 88.3 | 71 | 62.4 | 105 | 111 |
| Clc1ccc(Nc2nnc(Cc3ccncc3)c3ccccc23)cc1 [vatalanib] + O=C(Nc1ccccc1)c1cc([N+](=O)[O-])ccc1Cl [GW9662] (first compound 2 µM, partner dose 2 µM) | 86.2 | 88.6 | 72.1 | 91.8 | 137 | 92.2 |
| O=C(CCCCCCC(=O)Nc1ccccc1)NO [vorinostat] + O=C(Nc1ccccc1)c1cc([N+](=O)[O-])ccc1Cl [GW9662] (first compound 0.08 µM, partner dose 2 µM) | 96.6 | 97.8 | 102 | 101 | 90.3 | 96.3 |
| Clc1ccc(Nc2nnc(Cc3ccncc3)c3ccccc23)cc1 [vatalanib] + Oc1cc(-c2nc(-c3ccccc3)[nH]c2-c2ccncc2)ccc1Cl [L779450] (first compound 2 µM, partner dose 0.2 µM) | 63.2 | 101 | 78.8 | 64.5 | 111 | 102 |
| O=C(CCCCCCC(=O)Nc1ccccc1)NO [vorinostat] + COc1cc(N2CCC(N3CCN(C)CC3)CC2)ccc1Nc1ncc(Cl)c(Nc2ccccc2S(=O)(=O)C(C)C)n1 [NVP-TAE684] (first compound 0.08 µM, partner dose 0.08 µM) | 107 | 110 | 108 | 95.9 | 95.6 | 88.4 |
| Cn1c(Nc2ccc(C(F)(F)F)cc2)nc2cc(Oc3ccnc(-c4ncc(C(F)(F)F)[nH]4)c3)ccc21 + C=CCn1c(=O)c2cnc(Nc3ccc(N4CCN(C)CC4)cc3)nc2n1-c1cccc(C(C)(C)O)n1 [MK1775] (first compound 0.08 µM, partner dose 0.02 µM) | 40.6 | 63 | 56.8 | 40 | 70.1 | 82 |
| C#Cc1cccc(Nc2ncnc3cc(OCCOC)c(OCCOC)cc23)c1 [erlotinib] + CC1(C)NC(=O)N(c2ccc([N+](=O)[O-])c(C(F)(F)F)c2)C1=O [nilutamide] (first compound 0.8 µM, partner dose 1 µM) | 86.8 | 93.5 | 86.9 | 95.2 | 97.5 | 73.8 |
| OCc1c[nH]c2ccccc12 [Indole-3-carbinol] + O=C(CCCCCCC(=O)Nc1ccccc1)NO [vorinostat] (first compound 0.8 µM, partner dose 0.08 µM) | 98.6 | 100 | 97.4 | 152 | 85 | 92.8 |
| Nc1cccc2c1CN(C1CCC(=O)NC1=O)C2=O (configuration not stated) [lenalidomide] + C[C@@H]1CCN(C(=O)CC#N)C[C@@H]1N(C)c1ncnc2[nH]ccc12 [CP690550] (first compound 1 µM, partner dose 1 µM) | 105 | 97.3 | 97.2 | 114 | 96.1 | 97.9 |
| Clc1ccc(Nc2nnc(Cc3ccncc3)c3ccccc23)cc1 [vatalanib] + COc1cc2ncnc(Nc3ccc(Oc4ccccc4)cc3)c2cc1OC [SrcI1] (first compound 2 µM, partner dose 2 µM) | 103 | 116 | 77.8 | 107 | 141 | 106 |
| Cn1c(Nc2ccc(C(F)(F)F)cc2)nc2cc(Oc3ccnc(-c4ncc(C(F)(F)F)[nH]4)c3)ccc21 + COc1cc(Nc2ncc(F)c(Nc3ccc4c(n3)NC(=O)C(C)(C)O4)n2)cc(OC)c1OC [Tamatinib] (first compound 0.08 µM, partner dose 0.4 µM) | 68.5 | 105 | 62 | 73.7 | 91.9 | 137 |
